B1: UGACCAC (DNA:RNA)
RNA: GGGAGACCGGAAUUCAGAUUGUCCUGACCACUUAAAUCCCGUCGUAGCCACCA
DNA 1: CAATCTGAATTCCGGTCTCCC
DNA 2: TGGTGGCTACGACGGGATT
B2: UACAGCU (DNA:RNA)
RNA: B1 RNA with G26A, A27C, C28A, C29G, A30C, C31U
DNA 1: CAATCTGAATTCCGGTCTCCC
DNA 2: TGGTGGCTACGACGGGATT
B3: GGGCGAG (DNA:RNA)
RNA: B1 RNA with U25G, A27G, C29G, C31G
DNA 1: CAATCTGAATTCCGGTCTCCC
DNA 2: TGGTGGCTACGACGGGATT
B4: CUUUUAU (DNA:RNA)
RNA: B1 RNA with U25C, G26U, A27U, C28U, C29U, C31U
DNA 1: CAATCTGAATTCCGGTCTCCC
DNA 2: TGGTGGCTACGACGGGATT
B5: CCUAAGC (DNA:RNA)
RNA: B1 RNA with U25C, G26C, A27U, C28A, C29A, A30G
DNA 1: CAATCTGAATTCCGGTCTCCC
DNA 2: TGGTGGCTACGACGGGATT
B6: AACUAGU (DNA:RNA)
RNA: GGGAGACCGGAAUUCAGAUUGUCCAACUAGUUUAAAUCCCGUCGUAGCCACCA
DNA 1: CAATCTGAATTCCGGTCTCCC
DNA 2: TGGTGGCTACGACGGGATT
B7: GUGACCG (DNA:RNA)
RNA: B1 RNA with U25G, G26U, A27G, C28A, A30C, C31G
DNA 1: CAATCTGAATTCCGGTCTCCC
DNA 2: TGGTGGCTACGACGGGATT
B8: AUUUUCU (DNA:RNA)
RNA: B6 RNA with A26U, C27U, A29U, G30C
DNA 1: CAATCTGAATTCCGGTCTCCC
DNA 2: TGGTGGCTACGACGGGATT
B9: CCGCUGG (DNA:RNA)
RNA: B6 RNA with A25C, A26C, C27G, U28C, A29U, U31G
DNA 1: CAATCTGAATTCCGGTCTCCC
DNA 2: TGGTGGCTACGACGGGATT

Residue numbers refer to the chain shown, from its start. Some of the results follow.

The target of the experiment is T1, RBFOX1 RRM RbFoxmut (Fox-RRM*) (Homo sapiens, UniProt Q9NWB1 109-208, R118D;E147R;N151S;E152T).
T1 sequence: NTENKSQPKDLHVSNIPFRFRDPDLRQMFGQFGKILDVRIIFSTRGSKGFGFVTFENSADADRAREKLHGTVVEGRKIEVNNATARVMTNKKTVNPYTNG
As to the kind of experiment: EMSA; HiTS-Eq, 1 nM pool, 10 min; buffer printed only for the single-RNA assays: 10 mM Tris pH 7.5, 150 mM NaCl, 3.4 mM EDTA, 0.001% NP-40, 30 C. As to conditions: tags: His6 N-terminal (pET28a); label: 5' 32P. The gist of the method: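 A pool of RNA with 7 randomized nucleotides, 5′-radiolabelled and with DNA-annealed flanks, was equilibrated at 1 nM for 10 min in 50 µL with purified RbFox RRM, wild type or mutant, across increasing protein concentrations. Free RNA was separated by 8% native PAGE, excised, reverse-transcribed, barcoded by PCR and sequenced. Relative association constants were obtained from read-count changes of each RNA species versus the control reaction and normalised to the cognate motif.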
In the case of B1, the binding signal was 0.0616 KA relative to UGCAUGU.
In the case of B2 it was 0.056 KA relative to UGCAUGU; in that of B3, 0.126 KA relative to UGCAUGU.
As for B4, the binding signal was 0.13 KA relative to UGCAUGU.
For the molecule B5, the binding signal is 0.0811 KA relative to UGCAUGU.
In the case of B6 it was 0.108 KA relative to UGCAUGU; in that of B7, 0.162 KA relative to UGCAUGU; in that of B8, 0.0686 KA relative to UGCAUGU.
In the case of B9 it was 0.105 KA relative to UGCAUGU.

Source of the values: PMC9911399, “Two distinct binding modes provide the RNA-binding protein RbFox with extraordinary sequence specificity”.
